# Experimental data taken from paper PMC9127544.
# By UniProt entry, the sequences of proteins in these tests, tags left out. Where a name states a change or a piece, a line headed by the entry shows the natural chain unless it says otherwise.
# UniProt Q3ZCM7: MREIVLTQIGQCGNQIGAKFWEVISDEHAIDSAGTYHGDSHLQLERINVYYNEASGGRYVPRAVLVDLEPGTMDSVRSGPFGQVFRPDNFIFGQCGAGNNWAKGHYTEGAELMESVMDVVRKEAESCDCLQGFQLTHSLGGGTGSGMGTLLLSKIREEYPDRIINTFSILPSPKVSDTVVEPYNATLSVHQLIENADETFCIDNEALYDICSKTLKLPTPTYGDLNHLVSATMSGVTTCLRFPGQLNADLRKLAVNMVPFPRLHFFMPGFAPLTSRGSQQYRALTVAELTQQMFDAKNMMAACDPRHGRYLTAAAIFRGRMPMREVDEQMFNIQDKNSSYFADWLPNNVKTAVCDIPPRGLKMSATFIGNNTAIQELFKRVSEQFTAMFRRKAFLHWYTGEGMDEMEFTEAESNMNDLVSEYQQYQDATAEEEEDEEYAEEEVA
# UniProt Q9BTW9: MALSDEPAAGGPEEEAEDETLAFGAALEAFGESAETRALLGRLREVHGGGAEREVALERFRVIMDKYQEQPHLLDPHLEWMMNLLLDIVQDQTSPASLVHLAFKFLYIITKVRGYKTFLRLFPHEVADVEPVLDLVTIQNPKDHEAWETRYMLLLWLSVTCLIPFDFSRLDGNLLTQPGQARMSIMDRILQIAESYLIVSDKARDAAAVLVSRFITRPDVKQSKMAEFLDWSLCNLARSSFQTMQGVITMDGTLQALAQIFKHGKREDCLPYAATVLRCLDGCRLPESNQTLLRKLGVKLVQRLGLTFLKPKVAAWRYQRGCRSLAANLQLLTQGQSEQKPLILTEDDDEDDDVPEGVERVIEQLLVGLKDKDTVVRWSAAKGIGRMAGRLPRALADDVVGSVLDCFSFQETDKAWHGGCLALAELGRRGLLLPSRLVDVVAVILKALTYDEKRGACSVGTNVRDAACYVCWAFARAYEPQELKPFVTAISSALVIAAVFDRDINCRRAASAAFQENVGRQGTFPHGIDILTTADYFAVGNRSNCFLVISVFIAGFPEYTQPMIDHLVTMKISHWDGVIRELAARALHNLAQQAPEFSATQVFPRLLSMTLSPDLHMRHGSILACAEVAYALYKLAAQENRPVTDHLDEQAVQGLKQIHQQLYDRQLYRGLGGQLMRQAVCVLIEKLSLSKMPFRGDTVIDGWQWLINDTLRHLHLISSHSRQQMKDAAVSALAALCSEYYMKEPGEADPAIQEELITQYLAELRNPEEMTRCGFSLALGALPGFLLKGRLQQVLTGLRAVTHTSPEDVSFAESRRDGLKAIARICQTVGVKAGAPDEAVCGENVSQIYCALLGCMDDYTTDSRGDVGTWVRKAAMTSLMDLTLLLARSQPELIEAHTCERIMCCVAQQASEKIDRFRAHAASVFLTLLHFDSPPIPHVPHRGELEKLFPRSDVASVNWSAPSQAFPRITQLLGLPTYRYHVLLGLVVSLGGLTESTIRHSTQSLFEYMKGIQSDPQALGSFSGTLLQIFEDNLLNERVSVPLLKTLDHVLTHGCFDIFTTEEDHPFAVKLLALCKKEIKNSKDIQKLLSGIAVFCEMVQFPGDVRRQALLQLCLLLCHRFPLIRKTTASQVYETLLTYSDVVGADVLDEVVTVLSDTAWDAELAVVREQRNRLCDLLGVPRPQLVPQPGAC
# These are yes or no findings as the source states them, for the method shown. Binding seen in cells or lysates may run through a third protein. Some binding calls cover weakened binding; strength is not graded here.
# What was measured:
# Experiment in all cases: co-IP; HEK293T cells transfected with WT or mutant TUBB8; TBCD and TBCA detected by blot; how the precipitation was done is not described
# TUBB8 S176L (human) = TUBB8 S176L (human) (UniProt Q3ZCM7)
# wild-type TUBB8 (human) = wild-type TUBB8 (human) (UniProt Q3ZCM7)
# TUBB8 A313V (human) = TUBB8 A313V (human) (UniProt Q3ZCM7)
binding (TUBB8 S176L (human)),binding (wild-type TUBB8 (human)),binding (TUBB8 A313V (human)),Molecule
binds,binds,,TBCD (from UniProt Q9BTW9 1-1192)
no binding,binds,binds,"TBCA (protein, UniProt O75347 1-108) MADPRVRQIKIKTGVVKRLVKEKVMYEKEAKQQEEKIEKMRAEDGENYDIKKQAEILQESRMMIPDCQRRLEAAYLDLQRILENEKDLEEAEEYKEARLVLDSVKLEA"
